This note sets out measurements from patent US20250122296A1 (BIOTHEUS, published 2025).

The target of the experiment is T1, human 4-1BB (human, UniProt Q07011 24-255).
T1 construct: whole, on cells; also called h4-1BB; CD137
The experiment can be described thus: flow cytometry on CHO-h4-1BB cells, goat anti-human IgG-Fc (PE) detection, MFI. How it is done: By using the PLVX vector (synthesized by Qingke) of human 4-1BB cDNA which was cloned to the multiple cloning site (MCS) by transfection, CHO cells overexpressing human 4-1 BB were generated and named as CHO-h4-1BB cells. The expanded cultured CHO-h4-1BB cells was adjusted to have a cell density of 2×10^6 cells/ml, added to a 96-well flow plate, 100 μl/well, and centrifuged for later use. The bispecific antibody was diluted with PBS, and the diluted sample in 100 μl/well was added to the 96-well flow plate with cells, incubated at 4° C. for 60 min, and washed twice with PBS. Goat anti-human IgG-Fc (PE) (Abcam, ab98596) diluted 100 times with PBS was added, 100 μl/well, incubated at 4° C. for 30 min, and washed twice with PBS. The cells resuspended with PBS was added, 100 μl/well, and detected on a CytoFlex (Beckman) flow cytometer, and the corresponding MFI was calculated. The bispecific antibody of the present invention had binding activity to CHO-h4-1BB cells.
On the technique in general: In flow cytometry, cells or beads pass a laser one at a time.

T1 sequence (Q07011 24-255): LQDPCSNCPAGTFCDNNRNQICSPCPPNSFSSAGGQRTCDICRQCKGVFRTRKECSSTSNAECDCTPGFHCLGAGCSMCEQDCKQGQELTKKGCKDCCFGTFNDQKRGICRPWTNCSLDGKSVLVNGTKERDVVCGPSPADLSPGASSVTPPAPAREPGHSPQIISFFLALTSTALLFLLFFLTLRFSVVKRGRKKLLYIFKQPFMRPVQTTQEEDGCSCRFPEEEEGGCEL

B1: anti-Claudin 18.2×4-1BB bispecific antibody (Claudin 18.2×4-1BB biAb) (bispecific antibody, human IgG1, kappa)
heavy: QVQLVQSGAEVKKPGASVKVSCKASGYTFTSYYMHWVRQAPGQGLEWMGTIYPGNGDTSYNQKFQGRVTMTRDKSTSTVYMELSSLRSEDTAVYFCARGGYYGNSLDYWGQGTLVTVSSASTKGPSVFPLAPSSKSTSGGTAALGCLVKDYFPEPVTVSWNSGALTSGVHTFPAVLQSSGLYSLSSVVTVPSSSLGTQTYICNVNHKPSNTKVDKKV[… human IgG1 Fc with changes …]GGGGSGGGGSGGGGSGGGGS[… about 120 residues …]
light: DIVMTQSPDSLAVSLGERATINCKSSQSVLSSGNQKNYLAWYQQKPGQPPKLLIYWASTRESGVPDRFSGSGSGTDFTLTISSLQAEDVAVYYCQNAYYYPFTFGQGTKLEIKRTVAAPSVFIFPPSDEQLKSGTASVVCLLNNFYPREAKVQWKVDNALQSGNSQESVTEQDSKDSTYSLSSTLTLSKADYEKHKVYACEVTHQGLSSPVTKSFNRGEC
notes: Expressed in Expi-CHO cells and purified with protein A; also called the bispecific antibody of the present application
Consider B1, for which the binding result is on record as “binds”.
